This test has as its target GTPase KRas (Homo sapiens) (UniProt P01116). The test can be described thus: Covalent labelling of cysteine mutants by fragments, read by mass spectrometry (AID 2202238). The arrangement: protein at 5 µM with 500 µM competing thiol for 1.5 h. Particulars: KRAS G12D cysteine mutants, disulfide tethering, MALDI-TOF labeling, stronger effect = higher value, fragment at 500 µM.
Where [1] appears, read: measured here: G60C mutant labeling.
Where [2] appears, read: measured here: G75C mutant labeling.
Where [3] appears, read: measured here: H94C mutant labeling.
Where [4] appears, read: measured here: I36C mutant labeling.
Setting [5] is: measured here: L120C mutant labeling.
[6] abbreviates: measured here: M67C mutant labeling.
The mark [7] stands for this setting: measured here: M72C mutant labeling.
[8] abbreviates: measured here: N26C mutant labeling.
Where [9] appears, read: measured here: N86C mutant labeling.
Setting [10] is: measured here: P121C mutant labeling.
Where [11] appears, read: measured here: S122C mutant labeling.
The mark [12] stands for this setting: measured here: S136C mutant labeling.

Results on 23 compounds are retold here after PubChem BioAssay AID2202238 (Ras Initiative Chemistry Research Team, Frederick National …, 2025).

Some of the results follow. These are further read-outs of the screen, such as a control signal, another cell line or another target. No call is given for them.

UniProt P01116, sequence (P01116 whole entry, looked up, the tested form may be a part): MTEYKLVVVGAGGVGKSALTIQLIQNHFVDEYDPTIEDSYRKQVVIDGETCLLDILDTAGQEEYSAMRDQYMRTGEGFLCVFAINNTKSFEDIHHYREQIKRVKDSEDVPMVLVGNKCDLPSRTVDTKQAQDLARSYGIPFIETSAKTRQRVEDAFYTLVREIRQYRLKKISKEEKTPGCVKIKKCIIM

On to `O=C(NCCS)[C@@H]1C[C@H]1c1ccccn1`, for which the percent labeling under setting [1] was 46.5%; the percent labeling under setting [2] worked out at 22.4%; the percent labeling under setting [3] was 34.9%; the percent labeling under setting [4] was found to be 31.3%; the percent labeling under setting [5] was determined as 33.2%; the percent labeling under setting [6] was found to be 55.3%. Besides, the percent labeling is 29.1% under setting [7]; 46% under setting [8]; 29.2% under setting [9]; 42.8% under setting [10]; 32.9% under setting [11]; 70.2% under setting [12].

For the compound `O=C(NCCS)c1ccc(COc2ccccc2)cc1`, the percent labeling is, setting by setting: under setting [1], 11.7%; under setting [2], 6.2%; under setting [3], 10.8%; under setting [4], 10.7%; under setting [5], 15.9%; under setting [6], 14.9%. In addition, the percent labeling is, setting by setting: under setting [7], 28.4%; under setting [8], 19.9%; under setting [9], 11.9%; under setting [10], 8.8%; under setting [11], 10.6%; under setting [12], 15.1%.

On to `O=C(CN1C(=O)COc2ccc(Cl)cc21)NCCS`, for which the percent labeling was 45.1% under setting [1]; 25.7% under setting [2]; 31.4% under setting [3]; 23.9% under setting [4]; 34.4% under setting [5]; 28.2% under setting [6]. The percent labeling turned out to be 49.5% under setting [7]; 33.7% under setting [8]; 21.3% under setting [9]; 23.8% under setting [10]; 20.4% under setting [11]; 30.9% under setting [12].

Turning to `O=C(CCS)NCc1ccc(C(F)F)nc1`, the percent labeling reads like this: under setting [2], 10.7%; under setting [3], 25.5%; under setting [4], 40.2%; under setting [5], 25%; under setting [6], 26.5%; under setting [7], 19.5%. Also, the percent labeling by setting is: under setting [9], 20.7%; under setting [10], 28.7%; under setting [11], 30.8%; under setting [12], 44.8%.

On to `COc1ccc(OC)c(-c2cc(C(=O)NCCS)[nH]n2)c1`, for which the percent labeling by setting is: under setting [1], 19.7%; under setting [2], 9.2%; under setting [3], 12.2%; under setting [4], 9.2%; under setting [5], 11.5%; under setting [6], 10.8%. The same compound returned a percent labeling under setting [7] of 32.2%; a percent labeling under setting [8] of 28.3%; a percent labeling under setting [9] of 11.7%; a percent labeling under setting [10] of 8.8%; a percent labeling under setting [11] of 10.2%; a percent labeling under setting [12] of 13.9%.

Take `Cc1csc(=O)n1CC(=O)NCCS`: the percent labeling by setting is: under setting [1], 30.2%; under setting [2], 17.7%; under setting [3], 29.9%; under setting [4], 29.8%; under setting [5], 42.6%; under setting [6], 26.9%. Moreover, the percent labeling by setting is: under setting [7], 21.3%; under setting [8], 35.5%; under setting [9], 32.5%; under setting [10], 31.6%; under setting [11], 35.1%; under setting [12], 38.1%.

`O=C(CN1C(=O)C2CC=CCC2C1=O)NCCS` (stereo not given): the percent labeling under setting [1] came to 23.3%; the percent labeling under setting [2] came out at 6.9%; the percent labeling under setting [3] came out at 27.8%; the percent labeling under setting [4] came to 20.7%; the percent labeling under setting [5] was 42.3%; the percent labeling under setting [6] stood at 21.5%. The percent labeling runs as follows: under setting [7], 12.9%; under setting [8], 28.6%; under setting [9], 22.5%; under setting [10], 29%; under setting [11], 29.2%; under setting [12], 32.9%.

Take `Cc1nnc(N2CCN(C(=O)CCS)CC2)s1`: the percent labeling is, setting by setting: under setting [2], 11.3%; under setting [3], 26%; under setting [4], 40.1%; under setting [5], 27.2%; under setting [6], 36.5%; under setting [7], 21.4%. The percent labeling is, setting by setting: under setting [9], 37.2%; under setting [10], 30.8%; under setting [11], 29.8%; under setting [12], 61.3%.

In turn, `O=C(CCS)NCC1(c2ccncc2F)CC1` registered a percent labeling under setting [2] of 13.5%; a percent labeling under setting [3] of 28.6%; a percent labeling under setting [4] of 47.4%; a percent labeling under setting [5] of 36.8%; a percent labeling under setting [6] of 42%; a percent labeling under setting [7] of 32%. Further, the percent labeling runs as follows: under setting [9], 28.6%; under setting [10], 37.6%; under setting [11], 40%; under setting [12], 53.3%.

Turning to `O=C(NCCS)c1cnc2nc[nH]c2c1`, the percent labeling by setting is: under setting [1], 38.1%; under setting [2], 30.3%; under setting [3], 37.3%; under setting [4], 32.8%; under setting [5], 36.5%; under setting [6], 38.9%. In addition, the percent labeling is 42.3% under setting [7]; 50.1% under setting [8]; 33.4% under setting [9]; 30.4% under setting [10]; 39.8% under setting [11]; 50.2% under setting [12].

`CN(CC(=O)NCCS)C(=O)c1cnn(C)c1-n1cccc1` registered a percent labeling under setting [1] of 30.2%; a percent labeling under setting [2] of 12.4%; a percent labeling under setting [3] of 31.7%; a percent labeling under setting [4] of 25.6%; a percent labeling under setting [5] of 33.2%; a percent labeling under setting [6] of 29.2%. Moreover, the percent labeling was found to be 13.9% under setting [7]; 35% under setting [8]; 22.8% under setting [9]; 30.5% under setting [10]; 27.5% under setting [11]; 44.2% under setting [12].

On to `Cc1nc2c(s1)CCCC2CNC(=O)CCS` (stereo not given), for which the percent labeling was found to be 16.6% under setting [2]; 44.1% under setting [3]; 45.1% under setting [4]; 34.6% under setting [5]; 42% under setting [6]; 32.1% under setting [7]. Besides, the percent labeling was determined as 22.9% under setting [9], 36.4% under setting [10], 31.2% under setting [11] and 67.5% under setting [12].

As to `N#Cc1ccc(N2CCC(C(=O)NCCS)CC2)nc1`, the percent labeling is, setting by setting: under setting [1], 44.4%; under setting [2], 12%; under setting [3], 34.2%; under setting [4], 37%; under setting [5], 35.8%; under setting [6], 29.3%. Further, the percent labeling runs as follows: under setting [7], 32.2%; under setting [8], 43.7%; under setting [9], 24.2%; under setting [10], 28.1%; under setting [11], 23.8%; under setting [12], 47.3%.

Turning to `O=C(CCS)N1CCCC1c1c(F)cccc1F` (stereo not given), the percent labeling was 24.1% under setting [2]; 55.4% under setting [3]; 34.2% under setting [4]; 39% under setting [5]; 43% under setting [6]; 42.4% under setting [7]. The percent labeling is 34.4% under setting [9], 36.8% under setting [10], 34.2% under setting [11] and 74.1% under setting [12].

`O=C(CCS)NC1CCCc2c1cnn2-c1ccccc1F` (stereo not given) returned a percent labeling under setting [2] of 16.3%; a percent labeling under setting [3] of 37.5%; a percent labeling under setting [4] of 37.2%; a percent labeling under setting [5] of 33.7%; a percent labeling under setting [6] of 43.7%; a percent labeling under setting [7] of 30.4%. For the same compound, the percent labeling under setting [9] amounted to 22.2%, the percent labeling under setting [10] came to 32.1%, the percent labeling under setting [11] stood at 28.2% and the percent labeling under setting [12] is 53.3%.

Turning to `O=C(NCCS)c1cccnc1Cl`, the percent labeling runs as follows: under setting [1], 41.4%; under setting [2], 29.7%; under setting [3], 42.1%; under setting [4], 33.9%; under setting [5], 44.1%; under setting [6], 39.9%. The percent labeling is, setting by setting: under setting [7], 36.3%; under setting [8], 43.9%; under setting [9], 40.2%; under setting [10], 38.3%; under setting [11], 41.2%; under setting [12], 49.4%.

For `O=C(CCS)NC1(c2ccc(F)cn2)CC1`, the percent labeling by setting is: under setting [2], 14.2%; under setting [3], 34.6%; under setting [4], 35.7%; under setting [5], 30.6%; under setting [6], 33.5%; under setting [7], 29.6%. In addition, the percent labeling is 33.4% under setting [9], 33.4% under setting [10], 38.4% under setting [11] and 48.3% under setting [12].

For `COc1ccc(-c2csc(CCNC(=O)CCS)n2)cc1`, the percent labeling under setting [2] came out at 7%; the percent labeling under setting [3] amounted to 25.6%; the percent labeling under setting [4] is 25.6%; the percent labeling under setting [5] is 6.4%; the percent labeling under setting [6] is 22.5%; the percent labeling under setting [7] was 18%. The same compound came in with a percent labeling under setting [9] of 8.7%, a percent labeling under setting [10] of 13.3%, a percent labeling under setting [11] of 11.8% and a percent labeling under setting [12] of 29.5%.

In the case of `O=C1C[C@H](C(=O)NCCS)C[C@H](c2ccccc2)N1`, the percent labeling came out at 32.3% under setting [1]; 13.8% under setting [2]; 27.9% under setting [3]; 26.7% under setting [4]; 37.4% under setting [5]; 40.7% under setting [6]. Moreover, the percent labeling came to 23.8% under setting [7]; 37.3% under setting [8]; 17.7% under setting [9]; 34.8% under setting [10]; 29.2% under setting [11]; 69.6% under setting [12].

For the compound `O=C(Cc1ccccc1C(=O)NCCS)Nc1cccnc1`, the percent labeling reads like this: under setting [1], 35.3%; under setting [2], 15%; under setting [3], 36.9%; under setting [4], 22.8%; under setting [5], 22.5%; under setting [6], 30.9%. The percent labeling came out at 20% under setting [7]; 32.5% under setting [8]; 25.5% under setting [9]; 30.6% under setting [10]; 21.3% under setting [11]; 35.2% under setting [12].

`Cc1cc(C)c2c(OCC(=O)NCCS)nn(C)c2n1`: the percent labeling was 30.1% under setting [1]; 15.2% under setting [2]; 23.9% under setting [3]; 17.3% under setting [4]; 26.6% under setting [5]; 30.4% under setting [6]. Besides, the percent labeling is, setting by setting: under setting [7], 46.7%; under setting [8], 48.2%; under setting [9], 16.2%; under setting [10], 19%; under setting [11], 17.2%; under setting [12], 36.2%.

`O=C(NCCS)C1(c2cc(Cl)ccc2F)CCC1`: the percent labeling turned out to be 34.4% under setting [1]; 11.5% under setting [2]; 11.7% under setting [3]; 14.9% under setting [4]; 25.9% under setting [5]; 16.8% under setting [6]. For the same compound, the percent labeling runs as follows: under setting [7], 31.2%; under setting [8], 28.1%; under setting [9], 16.2%; under setting [10], 17.9%; under setting [11], 18.4%; under setting [12], 28.1%.

Consider `CC(=O)NCC1(CC(=O)NCCS)CCCCC1`, for which the percent labeling came to 33.5% under setting [1]; 13.5% under setting [2]; 37.9% under setting [3]; 20.8% under setting [4]; 36% under setting [5]; 36% under setting [6]. Also, the percent labeling runs as follows: under setting [7], 16.1%; under setting [8], 33%; under setting [9], 30.2%; under setting [10], 31.2%; under setting [11], 31.9%; under setting [12], 48.6%.
